The whole screen tested about 48,000 compounds, of which about 120 (0.25%) were called active. Another 4% or so got no clear call; they are omitted. Calls come from the whole dose curve; as a rule, active = well fitted activation curve with a large enough effect; inconclusive = small, poorly fitted or top-dose-only effect, or another doubt; inactive = no such curve, though single readings can be large or run the other way. The list shows a part of the results.

This assay in a line: Primary qHTS for Identification of Small Molecule Activators of Huntingtin-Antisense Promoter Activity. Note: nearly all actives have a fitted effect of over 55% in size. To be noted: HEK293 HTT-AS promoter firefly luciferase reporter, 24 h; series mostly up to 57.5 µM; activity change, positive = activation: at the top concentration. Put shortly:
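Firefly luciferase signal from promoter-reporter HEK293 cells was scaled between vehicle (0%) and zero RLU (-100%). Compounds were tested at final concentrations of up to 57.5 uM over 24 h at 37 degrees C. PTC124 at 50 uM final served as control inhibitor.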
Turning to `CCCc1ccc(OCc2ccc(C(=O)Nc3ccccc3C(=O)OC)o2)cc1`, the “activity change, positive = activation” value is inactive: 19.2%.
The same measure for `CCc1ccc(NC(=O)Cn2c(=O)n(-c3cccc(OC)c3)c(=O)c3c(C)c(C(=O)N(C)C)sc32)cc1`: inactive: 3.74%; for `Cc1ccc2oc(C(=O)N3CCC(c4nc5ccccc5s4)CC3)c(C)c2c1`: inactive: -12.2%.
The same measure for `COc1ccc(C)cc1NC(=O)c1nnn(CC(=O)Nc2c(C)cccc2C)c1N`: inactive: -2.87%.
As for `Cc1ccc(C)c(S(=O)(=O)c2nnn3c2nc(NC2CCCC2)c2sccc23)c1`, the “activity change, positive = activation” value is inactive: -49.5%.
For `CCc1cccc(NC(=O)c2cc3c(=O)oc4ccc(C)cc4c3s2)c1` the value was inactive: -7.04%; for `COc1ccc(CNC(=O)C(CC(C)C)NS(=O)(=O)c2ccc3c(c2)oc(=O)n3C)cc1` (stereo unspecified), inactive: -13.3%.
The same measure for `Cc1ccc(S(=O)(=O)c2cn(Cc3ccccc3)c3cc(N4CCCC4)c(F)cc3c2=O)c(C)c1`: inactive: -8.8%; for `CSc1nnc(NC(=O)c2cc(=O)c3cc(C)c(C)cc3o2)s1`: inactive: 1.04%.
Turning to `CCOc1c(CNCCSc2nnnn2C)cccc1OC`, the “activity change, positive = activation” value is inactive: 17.5%.
For `Cc1cccc(C)c1NC(=O)C(=O)NCC(c1ccc2c(c1)OCO2)N1CCN(C)CC1` (stereo unspecified) the value was inactive: -8.64%.
The same measure for `COc1ccc(OC)c([C@@H]2Nc3ccc(C(=O)O)cc3[C@@H]3C=CC[C@@H]32)c1`: inactive: -5.88%; for `Cc1cc(C)n(C(C)CC(=O)Nc2ccc(Cl)cc2C)n1` (stereo unspecified): inactive: -7.36%.
For `COc1cccc(CN2C(=O)C3(SCC(=O)N3c3ccc(C)c(Cl)c3)c3ccccc32)c1` (stereo unspecified) the value was inactive: -28.6%; for `CCOC(=O)c1cc(-c2ccc(C)cc2)n(CCCC(=O)Nc2cc(C)ccc2C)c1`, inactive: -31.5%; for `CC[C@@]1(O)C(=O)OCc2c1cc1n(c2=O)Cc2cc3c(CN(C)C)c(O)ccc3nc2-1`, “inactive”.
Turning to `Cc1cccc(C(=O)n2nc(C)c(S(=O)(=O)N3CCOCC3)c2C)c1`, the “activity change, positive = activation” value is inactive: -19.7%.
The same measure for `CCCCC(=O)N1CCc2cc(OC)c(OC)cc2C1COc1ccc(C(=O)OCC)cc1` (stereo unspecified): inactive: -25.8%.
For `CCOc1ccc(Sc2cc(C(=O)NCc3ccc(C)cc3)c3ccccc3n2)cc1` the value was inactive: -0.564%.
For `CCOc1ccccc1NS(=O)(=O)c1cc2[nH]c(=O)c(=O)[nH]c2cc1C` the value was inactive: -11%; for `COc1ccc(Cn2ccc3nc(C)c(C(=O)Nc4cc(OC)c(OC)c(OC)c4)cc3c2=O)cc1`, inactive: -19.6%.
Regarding `COc1ccc(-c2nc3n(n2)C(c2ccccc2OC)C(C(=O)Nc2cccnc2)=C(C)N3)cc1` (stereo unspecified), the “activity change, positive = activation” value is inactive: -7.41%.
The same measure for `CCOc1ccccc1NC(=O)c1c2c(nc3ccccc13)C(=O)N(C1CCCCC1)C2`: inactive: -44.2%; for `CCOc1ccc(C(=O)Nc2ccc3oc(-c4ccc(C)cc4C)nc3c2)cc1Br`: inactive: 1.02%; for `CCOc1ccc(NC(=O)Cn2c(=O)n(CCCCC(=O)NCCc3ccc(Cl)cc3)c(=O)c3ccccc32)cc1`: inactive: -1.11%.
For `CCc1ccccc1NC(=O)CC1NCCNC1=O` (stereo unspecified), the “activity change, positive = activation” value is inactive: -6.73%.
Consider `O=C(C1CCC(CNS(=O)(=O)c2ccc(Br)s2)CC1)N1CCN(c2ccc(F)cc2)CC1` (stereo unspecified), for which the “activity change, positive = activation” value was inactive: -41.2%.
Regarding `Cc1cc(Nc2cc(CN3CCOCC3)c3nc(C)c(Cc4ccc(Cl)cc4F)n3n2)n[nH]1`, the “activity change, positive = activation” value is inactive: -24.6%.
The same measure for `CO[C@H]1/C=C\O[C@@]2(C)Oc3c(C)c(O)c4c(O)c(c5c(nc6cc(C)ccn65)c4c3C2=O)NC(=O)C(C)=CC=C[C@H](C)[C@H](O)[C@@H](C)[C@@H](O)[C@@H](C)[C@H](OC(C)=O)[C@H]1C`: inactive: -11%.
For `O=C(Nc1cccc(Cl)c1)N1CC2CCCN2c2ccccc21` (stereo unspecified) the value was inactive: -21.3%; for `Cc1ccc(-n2c(=O)c3ccc(C(=O)NCc4ccco4)cc3n(CC(=O)Nc3ccc(C)c(F)c3)c2=O)cc1`, inactive: -17.1%; for `Cc1ccc(NS(=O)(=O)c2ccc3c(c2)N(C)C(=O)CC(=O)N3C)cc1Cl`, inactive: -1.19%.
As for `CCC1CN(C(=O)N2CCC(C(=O)N3CCN(c4ccccc4)CC3)CC2)c2ccccc2O1` (stereo unspecified), the “activity change, positive = activation” value was inactive: -20.5%.
For `CCOc1ccc(-n2c(SCC(=O)NCc3ccccc3)nc3n[nH]c(C)c3c2=N)cc1` the value was inactive: -16.3%; for `Nc1nnc(-c2cccc(Cl)c2Cl)c(N)n1`, “inactive”.
The same measure for `O=S(=O)(NCC(c1cccs1)S(=O)(=O)c1ccccc1)c1ccccc1` (stereo unspecified): inactive: -30.7%; for `N#C/C(=C\c1ccc(OCc2ccc(Cl)cc2Cl)cc1)c1nc2ccccc2[nH]1`: inactive: -32.5%.
On to `O=C(Nc1nc2n(n1)C(c1ccc(F)cc1)C=C(c1ccc(Cl)cc1)N2)c1ccc([N+](=O)[O-])cc1` (stereo unspecified), for which the “activity change, positive = activation” value was inactive: -28.6%.
For `COc1ccc(NC(=O)c2cnn(-c3ccc(C)c(C)c3)c2C2CCNCC2)cc1OC` the value was inactive: 14.7%; for `Cc1cccc(C2=Nc3ccccc3N=C(c3cc(Cl)ccc3O)C2)c1`, inactive: 3.78% [at 11.5 µM, percent change from vehicle, -100% = no light].
For `Cc1oc2c(cc(NS(=O)(=O)c3ccc(C(C)C)cc3)c3ccccc32)c1C(=O)OCc1ccccc1` the value was inactive: -16%; for `COc1ccc(OC)c(CNC(=O)c2cc3c(Cl)nc4ccccc4c3s2)c1`, inactive: -14.3%.
For the molecule `COc1ccccc1CC(=O)Nc1ccc2nc(Nc3cccc(C(F)(F)F)c3)cc(C)c2c1`, the “activity change, positive = activation” value is inactive: -44.1%.
The same measure for `CCOc1ccc(-n2c(C)nc3cc(C(=O)NC4CCCC4)ccc32)cc1`: inactive: -11.8%.
On to `COC(=O)c1scc(-c2ccc(C)cc2)c1S(=O)(=O)N1CCN(c2ccc(F)cc2)CC1`, for which the “activity change, positive = activation” value is inactive: -20.6%.
For `Nc1c(C(=O)NCc2cccs2)nnn1CC(=O)Nc1cccc(F)c1` the value was inactive: -9.89%; for `CCC1CCCCN1C(=O)c1c[nH]c2ccc(S(=O)(=O)Nc3cccc(OC)c3)cc2c1=O` (stereo unspecified), inactive: -10.7%; for `O=C(NCc1ccco1)c1ccc2c(c1)N(Cc1ccccc1)C(=O)c1ccccc1S2`, inactive: -45.3%.
Turning to `Cc1cc(C)c(S(=O)(=O)NCCc2sc3nc(-c4ccc(F)cc4)nn3c2C)c(C)c1`, the “activity change, positive = activation” value was inactive: -10.5%.
For `Cc1cc(C)cc(-n2ccn(CC(=O)c3ccc(F)cc3)c(=O)c2=O)c1` the value was inactive: -4.29%; for `O=C(NC1CCCCC1)c1ccc(CSc2nc3cccnc3n2Cc2cccc(F)c2)cc1`, inactive: -26.4%; for `CCOc1ccc(NC(=O)CCc2c(C)nc3cc(-c4ccccc4OC)nn3c2C)cc1`, inactive: -20%.
As to `COC(=O)c1ccc(CSc2c(C(C)C)cnc3c2c(=O)n(C)c(=O)n3C)cc1`, the “activity change, positive = activation” value is inactive: -0.901%.
As to `O=C(O)c1ccc(NS(=O)(=O)c2ccc(Cl)c(C(=O)Nc3ccccc3)c2)cc1`, the “activity change, positive = activation” value was inactive: 0.818%.
For `Cc1ccc(N(C)S(=O)(=O)c2ccc3[nH]c(=O)ccc3c2)cc1` the value was inactive: -13.3%; for `O=C(c1ccc(CS(=O)(=O)c2ccc(Br)cc2)o1)N1CCN(c2ccc(F)cc2)CC1`, inactive: -37.3%.
